According to the supplement of paper PMC11417369:
The other results are listed elsewhere or left out.

These sequences were tested on PfSIP2 AP2 domain 1 (GST-tagged) (assay: gcPBM binding intensity (ln(normalized median fluorescence intensity)); higher = stronger DNA binding).
How it was run: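 GST-tagged P. falciparum DNA-binding domains produced in E. coli were incubated for 1 h on an Agilent 4 × 180k array of primer-extended double-stranded 36-bp intergenic genomic probes with negative controls. Binding intensity is the highest Masliner-normalised natural-log median intensity across replicate spots of either probe orientation, with bound protein detected by Alexa488 anti-GST antibody at 488 nm.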

| Sequence | gcPBM binding intensity (ln) |
| --- | --- |
| TTTTTTTTTTAAAAAACACACACCTAAACAAGATAT [CACACA_site875] | 7.42 |
| ATATATATATATATTTGTACATATATATAATTTTTC [XGTACX_site7460] | 9.37 |
| TATAATTGTCTTCACACACACATATATATATATATA [CACACA_site2743] | 9.32 |
| AAAATAAAAAAAAAAGGTACACAAAAAGATGGACTG [XGTACX_site2650] | 6.82 |
| AAAAAACGACCTTACGCACACATTATTCTAGTCTAT [CACACA_site2349] | 7 |
| TCAAATTATATGAGTGGTACACATGTAATATTTTTA [XGTACX_site6518] | 6.76 |
| AAAAAAATATATATTACACACATATATACATATATA [CACACA_site3125] | 7 |
| ATATTTTGTATAATCACACACACTATTATTAAATAG [CACACA_site2612] | 7.09 |
| TTACATTTTTTATGTTTTTTTATATTGCAAAAAAAT [CACACA_negctrl_site1050] | 6.93 |
| ATATATATATATATATGTACTTATTAAGATTAAAAA [XGTACX_site61] | 9.21 |
| TTAAATATAAAAAGTAGTACATTTATATTTACCATA [XGTACX_site2962] | 6.94 |
| AAAAAAAAAAAAAAAACACACATACACCCCCACCCA [CACACA_site9117] | 9.07 |
| TATAAATATAAATACACACACACATCAATACAGATA [CACACA_site5850] | 6.97 |
| ATTAATAATATTCCTTGTACATGATTTTTCTAAATA [XGTACX_site7099] | 6.78 |
| TGTGTTAATAGAAAAAGTACATATACATATATATAT [XGTACX_site4951] | 8.74 |
| TGCACAGACGGACACACACACAACTAAAAAATAATG [CACACA_site5424] | 7.44 |
| TATAATAATGCCTTTACATGCAATAATAAAGAAATA [TGCATGCA_site631] | 7 |
| AATGAATTAATAGCTACACACGGTAACATAATAACT [CACACA_site851] | 6.94 |
| TCTTTTGAACAAATTTGTACGTATATAAAAATATTT [XGTACX_site6547] | 7.14 |
| ATATTTCATCTAGCTACACACATATAACAAATTACT [CACACA_site7843] | 7.28 |
| TACATAAAAATATCACGTACATATAATCATATACTA [XGTACX_site3505] | 7.08 |
| ACCTTTGATATATACACACACATAAAAAAAATATAT [CACACA_site6952] | 7.74 |
| TTCTTTTTCCAATTTGCACACCACAAAATTATATAT [CACACA_site2909] | 8.22 |
| ATAATTAATGATGTATGTACGGAATTTATATATTTG [XGTACX_site5685] | 6.92 |
| ATAGTAATAGAATGATTGCACTTAAATTTTCCCTCT | 7.33 |
